Measured values reported in PubChem BioAssay AID1240 (Sanford-Burnham Center for Chemical Genomics, 2008).
The campaign covered roughly 50,000 compounds. About 800 (1.6%) showed an effect of 50% or more. This is one part of the list.

Biological target: Bcl-2-like protein 10 (Homo sapiens) (UniProt Q9HD36)
Experiment: TR3 peptide-Bcl-B binding displacers, biochemical primary FP assay, phenotype converters (AID 1240);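 note: 0% = Bcl-B with tracer peptide and DMSO and 100% = tracer peptide lacking Bcl-B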
Conditions: GST-Bcl-B / FITC-TR3 peptide fluorescence polarization; stronger effect = higher value; compound at 3.75 mg/L

Sequence of UniProt Q9HD36 (Q9HD36 whole entry, looked up): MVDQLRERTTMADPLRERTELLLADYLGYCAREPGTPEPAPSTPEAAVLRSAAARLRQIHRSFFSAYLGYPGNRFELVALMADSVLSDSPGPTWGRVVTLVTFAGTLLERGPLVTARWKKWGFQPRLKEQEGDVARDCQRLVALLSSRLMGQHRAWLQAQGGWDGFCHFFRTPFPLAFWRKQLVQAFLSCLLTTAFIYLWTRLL

| Compound | displacement [%] |
| --- | --- |
| Cc1ccccc1Nc1nc(-c2cc3cc(Br)ccc3oc2=O)cs1 | 3.3 |
| CCCCCCOc1ccc(/C=C2/C(=O)ON=C2c2ccccc2)cc1 | 2.7 |
| Cc1ccc(OCC(=O)Nc2c(C)cccc2C(C)C)c(C(C)(C)C)c1 | 15.4 |
| O=C(Nc1ccccc1C(=O)N1CCN(Cc2ccccc2)CC1)c1ccco1 | 3 |
| O=C(/C=C/c1ccc(Cl)cc1Cl)NCc1ccncc1 | -4.4 |
| COc1ccc(N(CC(=O)Nc2ccc(Br)cc2)S(=O)(=O)c2ccccc2)cc1Cl | 11.2 |
| CCn1cc(/C=C2\C(=O)NC(=O)N(c3ccccc3)C2=O)c2ccccc21 | 25.2 |
| Cc1ccc(S(N)(=O)=O)cc1NC(=O)c1ccc(F)cc1 | 10 |
| Cc1ccccc1NC(=O)c1ccc(-c2ccccc2)cc1 | 14.5 |
| CC(C)(C)c1ccc(C(=O)NNC(=O)c2ccc([N+](=O)[O-])cc2[N+](=O)[O-])cc1 | -8.3 |
| COc1ccc(C)cc1NC(=O)CCC1CCCC1 | -4.4 |
| CCOC(=O)CNc1cccc(NCC(=O)OCC)c1 | 44.2 |
| O=C(Nc1ccc(Cl)cc1Cl)C1C2C3CCC(C3)C12 (stereo unspecified) | -6 |
| Cc1c(Cl)cccc1-c1ccc(/C=C/c2cc(C(F)(F)F)[nH]c(=O)n2)o1 | -60.9 |
| CC(C)CNC(=O)CC(=O)N/N=C/c1ccc(C(=O)O)cc1 | -6 |
| COc1ccc(N2C(=O)C(Cl)=C(N3CCN(C)CC3)C2=O)cc1 | 12.3 |

| Compound | displacement [%] |
| --- | --- |
| Oc1ccc(Br)cc1CN1CCN(C2CCN(Cc3ccccc3)CC2)CC1 | 9 |
| CN(C)c1ccc(/C=C/C(=O)c2ccc(Cl)cc2)cc1 | -19.3 |
| CCCOc1ccc(N2C(=O)CC(NCCc3ccc(Cl)cc3)C2=O)cc1 (stereo unspecified) | -11 |
| Cc1ccc(C(=O)CCNc2ccc(Br)cc2)o1 | -13 |
| CCCOc1ccccc1C1C(C(=O)OCCc2ccccc2)=C(C)NC2=C1C(=O)CCC2 (stereo unspecified) | -3.2 |
| O=C(COc1ccc2ccccc2c1)Nc1ccc(Cl)cn1 | 10.1 |
| COc1ccc(C2NC(=O)NC3=C2CCc2ccccc23)cc1 (stereo unspecified) | 16.8 |
| COc1ccccc1NC(=O)COc1ccc(Br)cc1 | 1.7 |
| COc1ccc(C(=O)Oc2ccc3c(C)cc(=O)oc3c2C(C)=O)cc1 | 7.8 |
| O=C(O)c1ccc(/C=C/C(=O)c2ccc3c(c2)OCCO3)cc1 | -1.5 |
| Cc1cc(C)c2nc(NC(=O)c3ccccc3[N+](=O)[O-])sc2c1 | 0.1 |
| COc1ccc(/C=C2/SC(=O)NC2=O)c(OC)c1 | 4.9 |
| Brc1ccc(OCCOc2cccc(/C=N/n3cnnc3)c2)cc1 | 7 |
| O=C1S/C(=C/C=C/c2ccccc2)C(=O)N1CNc1ccc(F)cc1 | 0.4 |
| Cc1cc(C)n(-c2cc(N(CCO)CCO)ncn2)n1 | 3.3 |
